{
  "source": "PubChem BioAssay AID1345083",
  "about": "(National Center for Advancing Translational Sciences (NCATS), 2018)",
  "note": "About 6,200 (6.6%) of roughly 94,000 compounds were called active. Inconclusive results, whose numbers are uncertain, are shown with a selection of clear calls. The call rests on the fitted dose curve; in most records, active means well fitted inhibition curve with a large enough effect; inconclusive means small, poorly fitted or top-dose-only effect; inactive means flat fitted curve, though single readings scatter. Potencies of inconclusive entries are doubtful fits and often do not repeat. Potency means the concentration at half of the fitted maximal effect; tags describe the fitted curve by direction and shape.",
  "data": [
    {"test": "Cytotoxic Profiling in HEK 293 Cell Line of Diverse Libraries Using Quantitative High-Throughput Screening; further: nearly all actives have a fitted effect of over 60% in size", "conditions": "HEK 293 viability, ATP luminescence (CellTiter-Glo), 48-72 h; series mostly up to 115 µM", "how_it_was_run": "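HEK 293 cells seeded at 250 cells/well were exposed to compound for 48 or 72 hr at 37 degree Celsius. Viability taken as ATP content by CellTiter-Glo luminescence.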", "values": [
      {"smiles": "COc1ccc(CNC(=O)[C@@]23CCCC[C@H]2N(C)C(=O)CC3)c(OC)c1", "Potency": "inactive"},
      {"smiles": "COCC(=O)N[C@H]1C[C@@H](CO)N(Cc2cccs2)C1", "Potency": "inactive"},
      {"smiles": "O=C(Nc1cccc(Cl)c1)C1CCN(C(=O)c2ncn3c2COC(c2ccc(F)cc2)C3)CC1", "note": "(stereo not drawn)", "Potency": "inconclusive: 35.5 µM [inhibitor, single point]"},
      {"smiles": "COCCOc1ccnc(-c2noc([C@@H]3CCCN3Cc3cccc(OC(F)(F)F)c3)n2)c1", "Potency": "inconclusive: 44.7 µM [inhibitor, partial curve, poor fit]"},
      {"smiles": "Cc1ccc(CN2CCN(C(=O)CCC3CCN(C(=O)c4ccccc4)CC3)CC2)cc1", "Potency": "inconclusive: 44.7 µM [inhibitor, partial curve, poor fit]"},
      {"smiles": "COCc1nncn1C1CCN(C(=O)c2cccc(C(F)(F)F)c2)CC1", "Potency": "inactive"},
      {"smiles": "COc1ccc(NC(=O)COc2cccc(-c3nnc4n3CCCC4)c2)cc1OC", "Potency": "inactive"},
      {"smiles": "Cc1cc(F)cc(CN2CCOc3cc([S+](=O)([O-])N(C)C)ccc3C2)c1", "Potency": "active: 79.4 µM"},
      {"smiles": "COc1ccccc1-n1cc(C(=O)N2CCc3c(Cl)cccc3C2)cn1", "Potency": "inconclusive: 50.1 µM [inhibitor, partial curve, poor fit]"},
      {"smiles": "O=C(c1ccccc1F)N1CCN(c2cc(-c3ccccc3)[nH]n2)CC1", "Potency": "inconclusive: 50.1 µM [inhibitor, partial curve, poor fit]"},
      {"smiles": "COc1ccc(Cn2c(=O)c(C(=O)NCC(F)(F)F)nc3cccnc32)cc1", "Potency": "inactive"},
      {"smiles": "COc1ccc(OC)c(CNC(=O)c2ccc3c(c2)C(O)CCCCCN3C)c1", "note": "(stereo not drawn)", "Potency": "inconclusive: 89.1 µM [inhibitor, single point]"},
      {"smiles": "Cn1ccnc1CNC(=O)C[C@@H]1C[C@H]2O[C@H](CNC3Cc4ccccc4C3)[C@@H](O)[C@H]2O1", "Potency": "inactive"},
      {"smiles": "C[S+](=O)([O-])N1CCCC2(C1)C(=NC1CCCC1)NC(=O)N2c1cc(F)cc(F)c1", "note": "(stereo not drawn)", "Potency": "inactive"},
      {"smiles": "O=C(Nc1ccccc1F)NC1CCc2nn(CC3CC3)c(=O)n2CC1", "note": "(stereo not drawn)", "Potency": "inactive"},
      {"smiles": "Cn1cnc2cc(-c3ccc(F)cc3)cc(C(=O)NCCc3ccccn3)c21", "Potency": "inactive"},
      {"smiles": "CC(C)CCN1CCCC2(CNc3ccccc3[S+](=O)([O-])N2)C1", "note": "(stereo not drawn)", "Potency": "inactive"},
      {"smiles": "O=C1CCN(C(=O)C2CCCCC2)CCCC(c2nc(-c3cccnc3)no2)CCN1", "note": "(stereo not drawn)", "Potency": "inactive"},
      {"smiles": "COc1ccc(C(=O)N[C@@H]2CCC[C@@H]2C(=O)NCCc2c[nH]c3ccc(OC)cc23)cc1", "Potency": "inconclusive: 89.1 µM [inhibitor, single point]"},
      {"smiles": "O=C(CCc1nc2ccccc2c(=O)[nH]1)NC1CCCc2c1[nH]c1c(Cl)cccc21", "note": "(stereo not drawn)", "Potency": "inconclusive: 50.1 µM [inhibitor, partial curve, poor fit]"},
      {"smiles": "Cn1ccc2ccc(-c3nc(C4CCOC4)no3)cc21", "note": "(stereo not drawn)", "Potency": "inactive"},
      {"smiles": "COCC1CN(C(C)=O)CC12CCN(S(=O)(=O)c1cn(C)cn1)CC2", "note": "(stereo not drawn)", "Potency": "inactive"},
      {"smiles": "Cc1ccccc1CC(=O)N1CCC[C@H]1c1nc(-c2ccccc2Cl)no1", "Potency": "inconclusive: 44.7 µM [inhibitor, partial curve, poor fit]"},
      {"smiles": "O=C(NCC1CN(Cc2ccncc2Cl)CC12CN(c1ccccc1)C2)c1ccccc1", "note": "(stereo not drawn)", "Potency": "inconclusive: 79.4 µM [inhibitor, partial curve]"},
      {"smiles": "CN1CCCCCC(O)c2cc(C(=O)N3CCCCCC3)ccc21", "note": "(stereo not drawn)", "Potency": "inconclusive: 39.8 µM [inhibitor, partial curve]"},
      {"smiles": "O=C(CCc1cccnc1)N1CCC(c2[nH]ncc2-c2cccc(F)c2)CC1", "Potency": "inconclusive: 39.8 µM [inhibitor, partial curve]"},
      {"smiles": "COc1ccccc1C(=O)NC1CCN(c2cc(C(F)(F)F)ncn2)CC1", "Potency": "inconclusive: 44.7 µM [inhibitor, partial curve]"},
      {"smiles": "COc1ccc(C2Cn3nnc(C(=O)N4CCN(C(=O)c5cc(F)ccc5Cl)CC4)c3CO2)cc1", "note": "(stereo not drawn)", "Potency": "inconclusive: 56.2 µM [inhibitor, partial curve, poor fit]"},
      {"smiles": "O=C(NCCc1ccccc1F)c1ccc2nnc(CC3CC3)n2c1", "Potency": "inactive"},
      {"smiles": "O=C(c1ccccc1F)N1CCCC(C(=O)N2CCCC2c2nc3ccncc3[nH]2)C1", "note": "(stereo not drawn)", "Potency": "inactive"},
      {"smiles": "O=C(NCC1CC1)c1nc2c(o1)CCN(Cc1ccc(F)cc1F)CC2", "Potency": "inconclusive: 25.1 µM [inhibitor, full curve]"},
      {"smiles": "CCCC(O)CN1CCC(=O)N(CC(C)(C)C)Cc2cc3c(cc21)OCO3", "note": "(stereo not drawn)", "Potency": "inconclusive: 44.7 µM [inhibitor, partial curve]"},
      {"smiles": "Cc1cccc(CN2CC[C@@H]3OCC(=O)N(Cc4ccc(O)cc4)[C@H]3CC2)c1", "Potency": "inconclusive: 89.1 µM [inhibitor, partial curve, poor fit]"},
      {"smiles": "Cc1cc(C)n(C2CCN(Cc3cn(-c4ccccc4)nn3)C2)n1", "note": "(stereo not drawn)", "Potency": "inactive"},
      {"smiles": "Cc1cccc(OCCc2noc(C3CCCCN3C(=O)NC(C)C)n2)c1", "note": "(stereo not drawn)", "Potency": "inconclusive: 79.4 µM [inhibitor, partial curve, poor fit]"},
      {"smiles": "COCCOc1ncccc1-c1noc([C@@H]2CCCN2Cc2ncc[nH]2)n1", "Potency": "inactive"},
      {"smiles": "O=[S+]([O-])(NC1CCCN(c2ccc3nnc(-c4ccccc4)n3n2)C1)c1cccc(C(F)(F)F)c1", "note": "(stereo not drawn)", "Potency": "inconclusive: 22.4 µM [inhibitor, full curve, poor fit]"},
      {"smiles": "CCCCCC(=O)N1CCC(=O)N(C)C[C@H]2COc3ccc(C)cc3[C@H]21", "Potency": "inactive"},
      {"smiles": "CCc1nn(-c2ccc(OC)cc2)c(Oc2ccccc2F)c1CCC(=O)NCC1CC1", "Potency": "inconclusive: 50.1 µM [inhibitor, partial curve, poor fit]"},
      {"smiles": "CCC1Oc2ccc(NC(=O)COC)cc2CN(Cc2ccc(F)cc2)C1=O", "note": "(stereo not drawn)", "Potency": "inconclusive: 79.4 µM [inhibitor, partial curve]"},
      {"smiles": "N#Cc1cccnc1N1CCC(CO)(Cc2ccccc2C(F)(F)F)CC1", "Potency": "inconclusive: 50.1 µM [inhibitor, partial curve, poor fit]"},
      {"smiles": "CN(Cc1csc(-c2ccccc2)n1)C(=O)c1ccc2nccn2c1", "Potency": "inconclusive: 79.4 µM [inhibitor, partial curve, poor fit]"},
      {"smiles": "COc1cccc(NC(=O)CCC2CCN(S(=O)(=O)c3ccccc3)CC2)c1", "Potency": "inconclusive: 44.7 µM [inhibitor, partial curve, poor fit]"},
      {"smiles": "CCCCCCN(CCC(=O)NCCC)C(=O)c1ccoc1", "Potency": "inconclusive: 100 µM [inhibitor, single point]"},
      {"smiles": "N#Cc1ccc(CN2CC(Oc3ccc4c(c3)OCO4)C2)cc1", "Potency": "inconclusive: 100 µM [inhibitor, partial curve, poor fit]"},
      {"smiles": "CN1CC(=O)N(C2CCCNC2)Cc2c1ncnc2N1CCCN(Cc2ccccc2)CC1", "note": "(stereo not drawn)", "Potency": "inactive"},
      {"smiles": "O=C(Cn1cccc1-c1nc(-c2ccc(F)cc2)no1)NC1CCCCC1", "Potency": "inactive"},
      {"smiles": "O=c1[nH]c(C2CCCN(Cc3ccc(-c4cccs4)cc3)C2)nc2ccc(F)cc12", "note": "(stereo not drawn)", "Potency": "active: 39.8 µM"},
      {"smiles": "O=C(CCNC(=O)c1cnccn1)NC1CCCc2c1[nH]c1c(Cl)cccc21", "note": "(stereo not drawn)", "Potency": "inconclusive: 100 µM [inhibitor, single point]"},
      {"smiles": "CCOc1ccc(C(=O)N2CCCC(n3cc(-c4nc(C)no4)nn3)C2)cc1", "note": "(stereo not drawn)", "Potency": "inactive"},
      {"smiles": "COCCn1ccnc1C1CCN(c2cnc3ccccc3n2)CC1", "Potency": "inconclusive: 89.1 µM [inhibitor, single point]"},
      {"smiles": "C[S+](=O)([O-])Nc1cccc(-c2cc3c(ccn3Cc3cccnc3)c(C3=CCOCC3)n2)c1", "Potency": "inconclusive: 35.5 µM [inhibitor, full curve]"},
      {"smiles": "Cn1ncc2c(C(=O)NCCCNC(=O)OC(C)(C)C)cc(-c3ccccc3F)nc21", "Potency": "active: 44.7 µM"},
      {"smiles": "COCCN1CCCN(C(=O)c2cc(C)ccc2C)c2ccccc21", "Potency": "inconclusive: 50.1 µM [inhibitor, partial curve, poor fit]"},
      {"smiles": "CN(Cc1ccccc1)C1CCOc2ccccc21", "note": "(stereo not drawn)", "Potency": "inactive"},
      {"smiles": "COc1ncc(-c2cc(C(=O)NCc3cccnc3)c3c(c2)N(C)CCO3)cn1", "Potency": "inactive"},
      {"smiles": "c1ccc(CNc2ncc(CN3CCC4(CCNCC4)C3)cn2)cc1", "Potency": "inconclusive: 44.7 µM [inhibitor, partial curve, poor fit]"},
      {"smiles": "Cc1nc(C(=O)N2CCC(c3[nH]ncc3-c3ccccc3C)CC2)cs1", "Potency": "inconclusive: 89.1 µM [inhibitor, partial curve, poor fit]"},
      {"smiles": "Cc1ccccc1C(=O)N1CCN(c2cc(-c3cccs3)[nH]n2)CC1", "Potency": "inconclusive: 89.1 µM [inhibitor, partial curve, poor fit]"},
      {"smiles": "COc1cccc(Nc2ccc3c(n2)C(C)(C(=O)NCc2cccs2)CN(C)C3)c1", "note": "(stereo not drawn)", "Potency": "inconclusive: 56.2 µM [inhibitor, full curve, poor fit]"},
      {"smiles": "COc1ccc(NC(=O)Nc2cccn3nc(C)nc23)cc1", "Potency": "inconclusive: 89.1 µM [inhibitor, partial curve, poor fit]"},
      {"smiles": "COCCn1c(C)cnc1CCNS(=O)(=O)c1ccccc1", "Potency": "inactive"},
      {"smiles": "COCC(=O)N1CCC(N2C(=O)c3c(c(C)nn3-c3ccccc3)C2C(C)C)CC1", "note": "(stereo not drawn)", "Potency": "inconclusive: 89.1 µM [inhibitor, single point]"},
      {"smiles": "CC(C)N1C(=O)C2(CCCCC2)C1C(=O)N1CCN(c2ccccc2)CC1", "note": "(stereo not drawn)", "Potency": "inactive"},
      {"smiles": "Cc1nn(-c2ccccc2)c2c1C(C(C)C)N(C1CCN(C(=O)c3ccc(F)cc3)CC1)C2=O", "note": "(stereo not drawn)", "Potency": "active: 35.5 µM"},
      {"smiles": "O=S(=O)(c1cccs1)N1CCC(OC2CCN(Cc3ccccc3)CC2)CC1", "Potency": "inconclusive: 50.1 µM [inhibitor, partial curve, poor fit]"},
      {"smiles": "COCCc1noc(C2Cc3ccccc3N2C(=O)Nc2ccc(C)cc2C)n1", "note": "(stereo not drawn)", "Potency": "inconclusive: 31.6 µM [inhibitor, partial curve, poor fit]"},
      {"smiles": "CCCN1CCCC2(Cc3ccccc3CN(C(C)=O)C2)C1", "note": "(stereo not drawn)", "Potency": "inactive"}
    ]}
  ]
}
